Assay results: the supplement of paper PMC3334620
Over roughly 33,000 sequences, “E-score (-0.5 to 0.5)” has its median near -0.011; the highest 2% begin near 0.28. The list shows a part of the results.

Target: T1, Gcr1 (UniProt P07261)
T1 sequence: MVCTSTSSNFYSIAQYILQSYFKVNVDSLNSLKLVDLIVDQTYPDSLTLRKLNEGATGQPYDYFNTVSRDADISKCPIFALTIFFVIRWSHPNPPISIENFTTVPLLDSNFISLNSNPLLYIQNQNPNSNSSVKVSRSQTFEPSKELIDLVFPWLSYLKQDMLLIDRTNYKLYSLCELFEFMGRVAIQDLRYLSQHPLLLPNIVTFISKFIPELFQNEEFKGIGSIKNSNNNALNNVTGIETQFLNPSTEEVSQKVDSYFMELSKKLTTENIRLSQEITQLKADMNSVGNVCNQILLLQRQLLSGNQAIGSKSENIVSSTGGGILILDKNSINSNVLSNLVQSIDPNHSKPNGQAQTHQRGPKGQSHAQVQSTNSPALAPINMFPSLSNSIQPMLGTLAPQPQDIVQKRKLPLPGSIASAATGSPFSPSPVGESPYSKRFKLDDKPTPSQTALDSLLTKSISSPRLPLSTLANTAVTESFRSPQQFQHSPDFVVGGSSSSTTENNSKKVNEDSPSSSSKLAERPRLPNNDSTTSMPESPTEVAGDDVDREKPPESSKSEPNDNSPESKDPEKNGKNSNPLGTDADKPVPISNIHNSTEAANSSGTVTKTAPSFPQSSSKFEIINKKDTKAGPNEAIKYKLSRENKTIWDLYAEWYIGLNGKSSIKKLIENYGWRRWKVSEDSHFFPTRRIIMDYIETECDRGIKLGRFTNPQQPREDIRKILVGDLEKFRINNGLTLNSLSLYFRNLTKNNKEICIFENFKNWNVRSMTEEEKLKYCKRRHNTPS
Assay: PBM E-score (8-mer binding enrichment) (E-score (-0.5 to 0.5)); higher = stronger / more preferred TF binding; most listed sequences are background and not binding sites
Conditions: protein concentration: 100 nM; construct: GST-full length
Procedure, shortened: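 For each ungapped eight-base word taken together with its reverse complement, the Universal PBM Analysis Suite assigned an E-score. Binding data came from GST-tagged yeast transcription factors, applied at about 100-200 nM, on universal all-10-mer Agilent arrays made double-stranded by primer extension. Fluorescent anti-GST marked bound protein, and scans were normalised with masliner.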

Row | Sequence | PBM E-score
1 | AACTGCAT | 0.0434
2 | TGACGCAA | -0.0285
3 | GGCAGAGA | -0.0152
4 | AATATAAG | 0.269
5 | CCAGCTTA | -0.0932
6 | AATACTGT | 0.0108
7 | AACCTGAT | -0.0454
8 | CACCGGCG | -0.0102
9 | AGAAGTTG | 0.178
10 | AGTGGGGG | 0.0679
11 | ATGGAGCC | 0.147
12 | TAATGTGA | -0.00916
13 | CAATCCTC | -0.0209
14 | ACGAATCA | 0.0358
15 | CGGCCATC | -0.181
16 | AATATGCT | -0.222
17 | AAGCACTG | -0.136
18 | GTACCTGA | 0.0766
19 | TATAAGCA | 0.224
20 | CTGTGGAC | -0.19
21 | CCCCGGGC | -0.0664
22 | GTAGTTCA | -0.0548

Row | Sequence | PBM E-score
23 | CAAGGCAC | -0.251
24 | CCGTTTGC | -0.0164
25 | GAGGACTC | 0.00276
26 | AGATATTG | 0.0179
27 | AACTCCTA | 0.101
28 | CGGATCGA | -0.231
29 | ACACGGTG | 0.0672
30 | GGCGCTAC | 0.136
31 | AAAGGCGA | -0.127
32 | ACGACCAT | -0.0983
33 | CCACGGTC | -0.246
34 | ATTCAGGC | 0.126
35 | CCAACCCA | 0.0305
36 | AGGTCAAT | -0.0492
37 | GGCAGCTA | 0.318
38 | AGAGCGTC | 0.083
39 | GTGCATCA | -0.0272
40 | AACGTGAG | -0.0937
41 | AAGGCAGG | -0.154
42 | CGGACCCA | 0.105
43 | AATATTCT | 0.15
44 | CAGAACTG | 0.0975

Row | Sequence | PBM E-score
45 | AGCGGTAT | 0.104
46 | CTATATAA | 0.117
47 | CAGCCAAC | 0.0336
48 | CGGTGTGC | -0.0713
49 | ACGGCTTG | -0.02
50 | ATTCCTAG | -0.0289
51 | CACGCCGC | 0.151
52 | CGCCGACA | -0.0683
53 | AGCGTGTC | -0.166
54 | ACTTCTAC | 0.169
55 | TATCTGGA | 0.203
56 | GGTTGAGA | -0.068
57 | TAAAAAAA | 0.104
58 | ACTGTACA | -0.221
59 | TCCTGACA | -0.00277
60 | CTATATGA | 0.0534
61 | CCTCCGGC | 0.12
62 | ACCAGGAT | 0.194
63 | ACACCAAT | -0.121
64 | ACTGACCA | -0.162
65 | ATGGCGGC | 0.0606
66 | AAACCTAT | -0.031

Row | Sequence | PBM E-score
67 | GCAATTAC | -0.123
68 | TAATCAAA | 0.09
69 | CAATAAGG | 0.0654
70 | CAAGTGCA | -0.183
71 | AATTACAC | -0.115
72 | ATCGTATA | 0.0593
73 | ATTATAGG | 0.256
74 | AAACCAAC | 0.0391
75 | GCAGATCA | -0.0971
76 | CCTCTACG | 0.0211
77 | ATACATTG | -0.0543
78 | ATGTAGGC | 0.103
79 | AGGCGGAA | -0.0378
80 | GGGCGGTA | -0.208
81 | TCGCACAA | -0.269
82 | AGGCAACA | -0.00605
83 | CTACTTCA | -0.0149
84 | CGCACCAC | -0.0633
85 | ATAAGTGG | 0.199
86 | AACGTGCG | -0.0468
